For 24 compounds, survival results are on record in PubChem BioAssay AID463173 (ICCB-Longwood Screening Facility, Harvard Medical School, 2010).

Molecules are shown by their SMILES. Out of some 52,000 compounds screened, about 4,300 (8.3%) were called active. No stated cut-off is given here; in the data, active means survival mostly below about 52% (no sharp cut-off); inactive means mostly above about 56%. This is one part of the list.

For this experiment, the system named is DeltatarO mutant. Put plainly: S. aureus survival, RN4220 and DeltatarO strains – OD600, teichoic acid synthesis inhibitors, primary screen (AID 463173). The conditions noted are these: S. aureus RN4220 wild type/DeltatarO growth, OD600, 18 h, stronger effect = lower value, screened at 18.75 µg/mL (by protocol).
As to `Cc1ccccc1-c1ccnc2[nH]n(-c3ccccc3)c(=O)c12`, the survival was active: 47%.
Next, `O=S(=O)(NCC(c1ccco1)N1CCOCC1)c1ccc(Br)cc1` (centres undefined): inactive: 91%; `Cc1ccccc1NC(=O)c1cn(-c2ccccc2)nc1-c1ccccc1`: inactive: 81%; `Nc1nonc1-n1nnc(C(=O)N=Nc2c(O)[nH]c3ccc(Br)cc23)c1-c1ccccc1`: inactive: 49%.
For the compound `COc1ccc(-c2cc(C(=O)Oc3ccc(C)cc3)c3ccccc3n2)cc1`, the survival was active: 11%.
The value for `CC(C)Oc1ccc(C(=O)N2CCC(c3nc4ccccc4o3)CC2)cc1` was inactive: 105%; that for `Cc1ccc(NS(=O)(=O)c2ccc(-c3cnc(C4CC4)o3)cc2)cc1N(C)C` was inactive: 79%.
The value for `CC(=O)Nc1ccc(NC(=O)CSc2nccn2Cc2ccc3c(c2)OCO3)cc1` was inactive: 84%; that for `COc1cc(NC(=O)CSc2ncc3c(n2)-c2ccc(Cl)cc2N(Cc2ccccc2)S3(=O)=O)cc(OC)c1` was inactive: 55%.
The value for `CC(C)c1ccc(NC(=O)CSC2=Nc3ccccc3C3=NC(CC(=O)NCc4cccs4)C(=O)N23)cc1` (centres undefined) was inactive: 82%; that for `CN(C)CCNC(=O)C1CCN(c2ncnc3c2nc2n3CCCCC2)CC1` was inactive: 102%.
On to `O=C1CSC2(C(=O)N(Cc3ccccc3F)c3ccccc32)N1c1cccc(C(F)(F)F)c1` (centres undefined), for which the survival was inactive: 87%.
Next, `O=C(Cn1ncc2c3ccccc3n(Cc3ccc(Cl)cc3)c2c1=O)NCCC1=CCCCC1`: inactive: 89%; `C=CCn1c(=O)[nH]c(=O)n(CC=C)c1=O`: inactive: 77%; `CCOc1ccccc1CNC(=O)CCc1c(C)nn(-c2ccc(N3CCCCC3)nn2)c1C`: inactive: 71%.
Next, `CC(NC(=O)C1CCN(S(=O)(=O)c2ccc(F)cc2)CC1)c1ccccc1` (centres undefined): inactive: 130%.
Next, `COc1cccc(C(=O)Nc2nc3ccc(S(=O)(=O)N4CCCC4)cc3s2)c1`: inactive: 79%; `CC1CCC(N2CC(=O)N(C3CCCCC3)C(c3ccc(Cl)cc3)C2=O)CC1` (centres undefined): inactive: 84%.
On to `O=C(Nc1ccc(Br)cc1)c1cc(-c2cccs2)nc2ccccc12`, for which the survival was inactive: 83%.
Next, `COc1cccc(N2CCN(C(=O)c3cc4c(s3)-c3c(C)cccc3OC4)CC2)c1`: inactive: 73%.
The value for `CCCCn1c(=NC(=O)C(C)(C)Oc2ccc(Cl)cc2)c(C(=O)OCC)cc2c(=O)n3ccccc3nc21` was inactive: 60%.
The value for `O=C(/C=C/c1ccccc1)C1=C(O)C(=O)N(CCO)C1c1ccc(F)cc1` (centres undefined) was inactive: 84%; that for `Cc1ccc(OCC(=O)Nc2nonc2-c2ccc(C)c(C)c2)cc1C` was inactive: 59%; that for `Cc1ccc(NC(=O)CN2C(=O)COc3ccc(S(=O)(=O)N4CCCCCC4)cc32)cc1Cl` was inactive: 67%.
